The list shows a part of the results. For part of these data: At the low end of the ranking, values are background and their order means little. For part of these data: Measured with an extract: partners may take part in the binding.
Legend:
Settings in all cases: 20 mM HEPES pH 7.9, 100 mM NaCl, 1 mM DTT, 0.2 mg/mL BSA, 0.02% Triton X-100, 2% milk, 0.4 mg/mL salmon testes DNA; 1 h; temperature not stated; high values mean tight binding; double strand, one strand shown; sequences stand for … in GCCTAGCAC…GTGCTAGGTCTTGATTCGCTTGACGCTGCTG
PU.1 (IVT) = PU.1 (IVT) (UniProt P17947); assay: protein-binding microarray (PBM)
[1] = target: PU.1 (endogenous, THP-1 nuclear extract) (UniProt P17947); assay: nuclear extract protein-binding microarray (nextPBM)
[2] = target: T1, FLI1 (endogenous, THP-1 nuclear extract) (UniProt Q01543); assay: as above
T1 sequence: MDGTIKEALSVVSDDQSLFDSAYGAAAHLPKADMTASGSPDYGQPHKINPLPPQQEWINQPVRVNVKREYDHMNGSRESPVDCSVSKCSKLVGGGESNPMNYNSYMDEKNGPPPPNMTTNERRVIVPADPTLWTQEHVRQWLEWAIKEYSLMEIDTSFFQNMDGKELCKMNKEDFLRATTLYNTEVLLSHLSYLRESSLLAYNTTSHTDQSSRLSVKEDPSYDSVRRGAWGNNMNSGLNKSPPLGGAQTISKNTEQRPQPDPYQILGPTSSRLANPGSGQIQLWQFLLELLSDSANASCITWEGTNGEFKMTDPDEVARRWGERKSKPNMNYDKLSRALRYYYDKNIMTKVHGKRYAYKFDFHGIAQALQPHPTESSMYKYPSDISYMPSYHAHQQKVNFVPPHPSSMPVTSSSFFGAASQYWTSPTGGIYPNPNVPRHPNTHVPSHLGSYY

Sequence | binding signal (PU.1 (IVT)) | binding signal [1] | binding signal [2]
AGAAAGGGGAAGTACGGCAA | 7.67 z-score | 7.06 z-score | 3.5 z-score
AAAAAGAGGAAGTCAAATTG | 8.3 z-score | 7.46 z-score | 4.01 z-score
GGAAACAGGAAGTGAGGGGC | 6.89 z-score | 6.85 z-score | 5.2 z-score
CCAAGCAGGAAGTGGGGAGG | 2.53 z-score | 2.73 z-score | 4.16 z-score
AGAAGAGGGAAGTGGAGGTT | 4.36 z-score | 4.56 z-score | 1.81 z-score
CAAAAGAGGAAGTGGTATCA | 8.24 z-score | 7.39 z-score | 4.31 z-score
GGGTGGAGGAAGTGATCCTC | 3.03 z-score | 3.47 z-score | 2.29 z-score
TGAAAGAGGAAGAGCAACCA | 3.55 z-score | 4.11 z-score | 1.73 z-score
TAAATGAGGAAGTGCTGCAT | 8.18 z-score | 7.55 z-score | 4 z-score
AAAAGAAGGAACTGGCTAGA | 3.16 z-score | 3.17 z-score | 1.01 z-score
CCAGAAAGGAAGTACTCCTC | 2.67 z-score | 2.6 z-score | 2.11 z-score
TTTAAAGGGAAGTGAACTAC | 3.8 z-score | 4.2 z-score | 1.74 z-score
CGAAAGGGTAAGTGCTAAAC | 0.518 z-score | 0.292 z-score | 0.368 z-score
GAAAGGAGGAAGTGATCATA | 6.14 z-score | 6.63 z-score | 3.21 z-score
CAAAAAGGGATGTGGATGCT | 1.81 z-score | 1.4 z-score | 1.1 z-score
AGAATGGGGAAGTGAATCTG | 6.95 z-score | 6.92 z-score | 2.84 z-score
GAAATGAGGAAGTCAAATTA | 7.71 z-score | 7.32 z-score | 3.02 z-score
TGAATGAGGAACTGTCAAAC | 4.51 z-score | 4.95 z-score | 1.2 z-score
GCAAAGGGGAAATGAGTTTT | 3.59 z-score | 3.06 z-score | 2.38 z-score
CAAATAGGGAAGTGGATGCT | 6.41 z-score | 6.54 z-score | 2.77 z-score
TGAAGAGGGAAGTGAGAGAG | 3.37 z-score | 3.47 z-score | 1.66 z-score

— publication PMC6451091
